Values joined by “and” are separate entries in the source; they are usually repeats but may differ in a detail not shown here. Equal values may be shown once. Hit rate of the full screen: of about 410,000 compounds, about 5,000 (1.2%) were called active. Inconclusive means that the source gave no clear call. Such entries were picked first, then a sample of the others. Calls follow the shape of the dose curve; as a rule, active = well fitted inhibition curve with a large enough effect; inconclusive = small, poorly fitted or top-dose-only effect; inactive = no such curve, though single readings can be large or run the other way. Potencies of inconclusive entries are doubtful fits and often do not repeat.
Experiment: qHTS for Inhibitors of TGF-b; also: nearly all actives have a fitted effect of over 65% in size
Conditions: HepG2 CAGA-GFP TGF-b/SMAD3 reporter, GFP fluorescence, 18 h, TGF-beta stimulated, 500 pg/mL final; series mostly up to 46.1 µM; activity, negative = inhibition: at the top concentration
Outline: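 Smad-responsive CAGA-GFP expression was quantified in HEPG2 cells exposed to compounds and 500 pg/mL final TGF-beta for 18 h at 37 degrees C; unstimulated wells defined full inhibition.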
% is scaled to controls: 0 for no effect and ±100 for the full control effect; potency is read from the fitted curve at half-maximal effect; tags tell the direction and shape of the fitted curve.

Row | SMILES | Potency | activity, negative = inhibition
1 | O=C(N[C@@H](Cc1ccccc1)C(=O)OCc1ccccc1)c1nc[nH]c1C(=O)NC1CCNCC1 | inconclusive: 4.47 µM [inhibitor, full curve, poor fit] | 
2 | Cc1nn(-c2ccccc2)c(Cl)c1/C=N/NS(=O)(=O)c1ccc(Br)cc1 | inconclusive: 28.2 µM [inhibitor, single point] | 
3 | Cc1ccc(-c2nnc3n2N=C(c2ccccc2)CS3)cc1 |  | inactive: 21%
4 | CCOC(=O)COc1ccc(C(=O)c2ccccc2)c(O)c1 | inconclusive: 3.98 µM [inhibitor, single point] | 
5 | C/C(=N\NC(=O)c1cccc(Br)c1)c1ccccn1 | inconclusive: 2.24 µM [inhibitor, partial curve, poor fit] | 
6 | CC(CNC(=O)c1ccc(N)cc1)NC(=O)c1ccc(N)cc1 (stereo not drawn) | inconclusive: 0.562 µM [inhibitor, full curve, poor fit] | 
7 | CCN1CCOC(=O)C1CC(=O)Nc1cc(Cl)ccc1OC (stereo not drawn) | inconclusive: 4.47 µM [inhibitor, full curve] | 
8 | COc1cccc(OCc2nn3c(=O)c(-c4ccccc4)nnc3s2)c1 |  | inactive: -2.5%
9 | O=C(CCCn1c(=O)c2cccn2c2cccnc21)Nc1ccccc1Br |  | inactive: -0.0383%
10 | CCCCCCSc1nc(O)c(C2OC(=O)c3c2ccc(OC)c3OC)c(=O)n1CC (stereo not drawn) | inconclusive: 35.5 µM [inhibitor, single point] | 
11 | C=C1CCN([C@@H](CC(C)C)C(=O)O)S(=O)(=O)c2ccccc21 | inconclusive: 6.31 µM [inhibitor, single point] | 
12 | COc1ccc(NC(=O)c2ccc(S(=O)(=O)N3CCOCC3)cc2)c(OC)c1 |  | inactive: -2.12%
13 | CC1(C(=O)NS(=O)(=O)c2ccc(Cl)s2)CCN1C(=O)Cc1ccccc1Cl (stereo not drawn) |  | inactive: -6.13%
14 | CC(C)(O)CCc1c(-c2ccc(O)cc2O)oc2c3c(cc(O)c2c1=O)OC(C)(C)C=C3 | inconclusive: 35.5 µM [inhibitor, single point] | 
15 | C[C@@H]1[C@@H](Sc2ccccc2)CC(=O)O[C@@H]1c1ccc(-c2ccccc2)cc1 | inconclusive: 25.1 µM [inhibitor, single point] and inconclusive: 31.6 µM [inhibitor, single point] | 
16 | O=C(c1cc(-c2cccs2)on1)N1CCN(c2ccc(F)cc2)CC1 | inconclusive: 5.01 µM [inhibitor, partial curve, poor fit] | 
17 | O=C1c2ccccc2S(=O)(=O)c2cc(N3CCC(C(=O)N4CCCCC4)CC3)ccc21 | inconclusive: 3.55 µM [inhibitor, full curve] | 
18 | C=CCNC(=S)N/N=C(\C)c1ccc(-n2ccnc2)cc1 |  | inactive: -25.8%
